# Test results as given in PubChem BioAssay (NCATS).
# The inconclusive results got no clear call from the source; some entries with a clear call stand among them for comparison. For some assays here: No potency is given beside an inconclusive call; the fits are too rough. Calls of active or inactive are those of the source. Unless noted, calls come from the whole dose curve; as a rule, active = well fitted curve in the direction sought with a large enough effect; inconclusive = small, poorly fitted or top-dose-only effect, or another doubt; inactive = no such curve, though single readings can be large; an effect the other way counts as inactive or inconclusive.
# What was measured:
# [1] = qHTS Assay for Identification of Small Molecule Antagonists for NFkB Signaling Pathway (AID 895; active = well fitted inhibition curve with a large enough effect in the signal ratio, with a control signal flat, not every such curve was filed as active; inconclusive = small, poorly fitted or top-dose-only effect, or effect the other way, or a change in a side signal; the % refers to the signal ratio; note: % is set by controls: 0 for no effect and ±100 for the full control effect); conditions: NFkB beta-lactamase reporter cells, FRET ratio 460/530, stimulated with 10 pM TNF alpha; activity change, negative = inhibition: at 38.3 µM (top of the series)
# Summary of the method: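 Beta-lactamase reporter read-out (460 and 530 nm emission ratio, 405 nm excitation, 2 hrs substrate loading RT) after 5 hr stimulation with 10 pM TNF alpha in compound-treated NFkB-bla ME-180 cells in low-serum medium.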
# [2] = molecular target: Muscarinic acetylcholine receptor M1 (Rattus norvegicus) (UniProt P08482); assay: qHTS Assay for Antagonists of Acetylcholine Muscarinic M1 Receptor: Measurement of IP-One Response (AID 944); note: potency is the fitted concentration of half-maximal effect; nearly all actives have a fitted effect of over 75% in size
# Sequence of UniProt P08482 (P08482 whole entry, looked up): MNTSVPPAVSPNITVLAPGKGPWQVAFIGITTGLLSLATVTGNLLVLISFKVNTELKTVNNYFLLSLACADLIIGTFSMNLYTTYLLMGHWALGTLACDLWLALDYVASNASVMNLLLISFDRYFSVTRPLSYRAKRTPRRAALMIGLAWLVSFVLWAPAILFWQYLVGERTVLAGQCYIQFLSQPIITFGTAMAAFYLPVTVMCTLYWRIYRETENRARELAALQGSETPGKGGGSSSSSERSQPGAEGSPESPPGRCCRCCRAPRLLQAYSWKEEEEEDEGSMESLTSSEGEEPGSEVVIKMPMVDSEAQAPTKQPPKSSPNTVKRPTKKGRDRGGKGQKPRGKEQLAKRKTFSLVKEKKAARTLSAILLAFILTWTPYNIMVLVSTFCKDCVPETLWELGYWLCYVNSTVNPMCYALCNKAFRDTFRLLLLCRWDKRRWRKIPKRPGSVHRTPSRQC
# [3] = Cell Viability - LYMP2-004 (AID 966);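 note: plate controls were DMSO only for no effect and tetraoctylammonium bromide control for full effect; nearly all actives have a fitted effect of over 65% in size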
# Summary of the method: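 Luminescent ATP read-out (CellTiter-Glo, 30 min RT) after 24 hr compound exposure at 37 C; 2500 lymphoblastoid cells/well, complete medium. Decrease in ATP = cytotoxicity; AC50 from standard Hill model.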
# [4] = Cell Viability - LYMP2-023 (AID 975);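 note: cellular ATP measured by luciferase luminescence as viability proxy; cells exposed to compound for 24 hours at 37 °C; plate controls were DMSO only for no effect and 92 µM tetraoctylammonium bromide control for full effect; nearly all actives have a fitted effect of over 55% in size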
# Summary of the method: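 CellTiter-Glo luminescence after 30 min at room temperature; decrease in intracellular ATP reflects toxicity. Cells: human lymphoblastoid line, 2500/well, 24 hr compound exposure at 37 C. AC50 fitted to standard Hill equation from concentration-response.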
# [5] = qHTS assay for small molecule agonists of the antioxidant response element (ARE) signaling pathway measured by Nrf2-dependant transcriptional activity (AID 720636; active = well fitted curve in the direction sought with a large enough effect in the repeat runs; inconclusive = weak or mixed curves; inactive = no such curve, though single readings can be large; an effect the other way counts as inactive or inconclusive;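 note: HepG2 cells with an ARE-driven luciferase reporter; % of control where 0% means no effect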)
# Summary of the method: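 Cells: ARE-luc HepG2 with Nrf2-responsive luciferase. Medium contained 1% dialyzed FBS. Compound exposure lasted 16 hr at 37 C and 5% CO2, followed by ONE-Glo luciferase detection.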
# [6] = molecular target: 3',5'-cyclic-AMP phosphodiesterase 4B (Homo sapiens) (UniProt Q07343); assay: qHTS Assay for Inhibitors of PDE-IV (AID 607; active = well fitted activation curve with a large enough effect in the main read-out, with a control signal flat, not every such curve was filed as active; inconclusive = small, poorly fitted or top-dose-only effect, or effect the other way, or a change in a side signal; note: potency is the fitted concentration of half-maximal effect)
# Sequence of UniProt Q07343 (Q07343 whole entry, looked up): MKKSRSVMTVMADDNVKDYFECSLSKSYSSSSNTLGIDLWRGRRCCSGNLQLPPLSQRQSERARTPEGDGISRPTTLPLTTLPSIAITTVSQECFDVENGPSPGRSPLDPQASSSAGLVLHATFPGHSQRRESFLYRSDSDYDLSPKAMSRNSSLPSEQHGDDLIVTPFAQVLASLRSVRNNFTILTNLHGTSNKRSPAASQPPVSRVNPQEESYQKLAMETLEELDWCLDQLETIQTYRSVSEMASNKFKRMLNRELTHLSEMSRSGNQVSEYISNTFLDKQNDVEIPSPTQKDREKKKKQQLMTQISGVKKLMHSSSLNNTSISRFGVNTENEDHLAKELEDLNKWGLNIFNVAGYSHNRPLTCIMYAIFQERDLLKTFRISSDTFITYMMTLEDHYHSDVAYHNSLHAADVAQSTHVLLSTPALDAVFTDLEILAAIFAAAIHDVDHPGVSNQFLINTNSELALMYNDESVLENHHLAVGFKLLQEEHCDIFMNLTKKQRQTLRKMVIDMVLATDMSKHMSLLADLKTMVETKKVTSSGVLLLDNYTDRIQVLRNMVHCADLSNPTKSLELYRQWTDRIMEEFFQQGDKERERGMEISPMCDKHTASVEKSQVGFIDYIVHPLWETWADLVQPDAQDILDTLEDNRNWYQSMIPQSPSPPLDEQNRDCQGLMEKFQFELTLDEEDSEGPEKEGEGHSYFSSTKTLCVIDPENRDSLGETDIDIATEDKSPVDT
# Summary of the method: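 Live HEK293 cells with a modified cyclic nucleotide-gated (CNG) channel report intracellular cAMP via membrane-potential dye fluorescence (ex 535/em 590 nm). Endogenous PDE-IV was targeted. Compounds were tested at up to 22.9 uM final; RO 20-1724 100 uM served as control.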
# [7] = molecular target: Cytochrome P450 2C9 (Homo sapiens) (UniProt P11712); assay: qHTS Assay for Inhibitors and Substrates of Cytochrome P450 2C9 (AID 883); note: potency is the fitted concentration of half-maximal effect; nearly all actives have a fitted effect of over 60% in size
# Sequence of UniProt P11712 (P11712 whole entry, looked up): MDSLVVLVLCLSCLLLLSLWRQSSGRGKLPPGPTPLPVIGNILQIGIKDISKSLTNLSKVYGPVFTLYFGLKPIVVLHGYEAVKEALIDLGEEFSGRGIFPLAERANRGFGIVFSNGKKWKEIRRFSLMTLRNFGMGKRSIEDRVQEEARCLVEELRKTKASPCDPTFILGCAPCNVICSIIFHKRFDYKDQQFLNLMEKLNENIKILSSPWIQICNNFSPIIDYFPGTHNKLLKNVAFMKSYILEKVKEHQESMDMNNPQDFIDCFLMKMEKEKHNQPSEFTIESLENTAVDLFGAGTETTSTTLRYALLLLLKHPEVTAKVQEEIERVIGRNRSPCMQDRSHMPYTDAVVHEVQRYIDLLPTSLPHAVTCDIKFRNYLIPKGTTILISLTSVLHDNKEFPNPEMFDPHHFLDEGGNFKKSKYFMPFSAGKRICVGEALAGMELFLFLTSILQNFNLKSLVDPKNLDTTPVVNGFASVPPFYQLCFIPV
# Summary of the method: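 Inhibition of CYP2C9 is scored as loss of luminescence, with 57uM sulphaphenazole defining 100% inhibition. Substrate Luciferin-H is used at 100uM, equal to its KM; enzyme at 10nM in 25mM KPO4, 60 min at 37C with NADPH regeneration.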
# [8] = molecular target: Endonuclease 4 (Escherichia coli (strain K12)) (UniProt P0A6C1); assay: Counterscreen for APE1 Inhibitors: qHTS Validation Assay for Inhibitors of Endonuclease IV (AID 1708); note: potency is the fitted concentration of half-maximal effect
# Summary of the method: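 The reaction buffer contained 50 mM Tris-HCl pH 7.5, 50 mM NaCl, 2 mM MgCl2, 1 mM DTT and 0.01% Tween-20. Incision of a 50 nM fluorophore/quencher THF substrate by 2 nM enzyme was measured kinetically.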
# [9] = molecular target: Chromobox protein homolog 1 (Homo sapiens) (UniProt P83916); assay: qHTS Validation Assay for Inhibitors of HP1-beta Chromodomain Interactions with Methylated Histone Tails (AID 488953); note: potency is the fitted concentration of half-maximal effect; nearly all actives have a fitted effect of over 50% in size
# Sequence of UniProt P83916 (P83916 whole entry, looked up): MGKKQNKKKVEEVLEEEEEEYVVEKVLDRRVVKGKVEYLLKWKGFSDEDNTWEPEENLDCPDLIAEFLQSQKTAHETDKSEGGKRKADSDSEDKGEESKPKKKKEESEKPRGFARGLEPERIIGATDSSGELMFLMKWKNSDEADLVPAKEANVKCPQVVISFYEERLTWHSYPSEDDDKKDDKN
# Summary of the method: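 AlphaScreen proximity readout: streptavidin donor and Ni-chelate acceptor beads, 10 ug/mL final, 30 min dark, RT. Complex of 50 nM HP1-beta and 50 nM b-H3(1-18)K9me3 formed 30 min, then compound-treated 30 min; PBS pH 7.4/0.01% Tween-20.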
# [10] = Validation screen for small molecules that induce DNA re-replication in SW480 colon adenocarcinoma cells (AID 504364); note: 0% is about no effect
# Summary of the method: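 Read-out: total Hoechst intensity of nuclei by fluorescence scanning imager; hits raise the fraction of nuclei with elevated DNA content. Cells received compound for 48 hr at 37 C before a 40 min stain.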
# [11] = molecular target: Nuclear receptor subfamily 1 group I member 3 (Homo sapiens) (UniProt Q14994); assay: Primary qHTS for antagonist of constitutive androstane receptor (CAR) against the NCATS DSHEA and TCM libraries (AID 1794836); note: potency is the fitted concentration of half-maximal effect
# Sequence of UniProt Q14994 (Q14994 whole entry, looked up): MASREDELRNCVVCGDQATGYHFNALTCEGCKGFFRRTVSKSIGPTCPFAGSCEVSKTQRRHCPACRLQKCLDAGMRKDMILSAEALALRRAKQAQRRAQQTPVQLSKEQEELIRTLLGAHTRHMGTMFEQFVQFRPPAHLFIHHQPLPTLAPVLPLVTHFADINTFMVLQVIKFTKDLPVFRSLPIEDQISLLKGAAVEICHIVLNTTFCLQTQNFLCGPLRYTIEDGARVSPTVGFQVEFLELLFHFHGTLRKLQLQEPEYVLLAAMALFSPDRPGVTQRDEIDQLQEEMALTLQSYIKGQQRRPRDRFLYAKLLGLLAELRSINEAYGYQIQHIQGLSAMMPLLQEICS
# Summary of the method: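 Antagonist mode: CAR reporter luminescence (ONE-Glo) in HepG2-CYP2B6-hCAR cells stimulated with 48 uM CITCO (final) over 24 h at 37 C, compounds titrated; viability read first by CellTiter-Fluor fluorescence.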
# [12] = Viability counterscreen for antagonist of constitutive androstane receptor (CAR) against the NCATS DSHEA and TCM libraries (AID 1794837); conditions: CAR reporter cell line viability counterscreen, qHTS; at 40 µM (top of the series);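 note: compound exposure lasted 24 h before viability reading; 0% is about no effect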
# Summary of the method: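 Fluorescence from CellTiter-Fluor reports live-cell protease activity in HepG2-CYP2B6-hCAR cells treated for 24 h with substances alongside 48 uM CITCO.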
# [13] = molecular target: Cytochrome P450 3A4 (Homo sapiens) (UniProt P08684); assay: qHTS for inhibitors of CYP3A4 against the NCATS DSHEA and TCM libraries (AID 1919971); note: potency is the fitted concentration of half-maximal effect
# Sequence of UniProt P08684 (P08684 whole entry, looked up): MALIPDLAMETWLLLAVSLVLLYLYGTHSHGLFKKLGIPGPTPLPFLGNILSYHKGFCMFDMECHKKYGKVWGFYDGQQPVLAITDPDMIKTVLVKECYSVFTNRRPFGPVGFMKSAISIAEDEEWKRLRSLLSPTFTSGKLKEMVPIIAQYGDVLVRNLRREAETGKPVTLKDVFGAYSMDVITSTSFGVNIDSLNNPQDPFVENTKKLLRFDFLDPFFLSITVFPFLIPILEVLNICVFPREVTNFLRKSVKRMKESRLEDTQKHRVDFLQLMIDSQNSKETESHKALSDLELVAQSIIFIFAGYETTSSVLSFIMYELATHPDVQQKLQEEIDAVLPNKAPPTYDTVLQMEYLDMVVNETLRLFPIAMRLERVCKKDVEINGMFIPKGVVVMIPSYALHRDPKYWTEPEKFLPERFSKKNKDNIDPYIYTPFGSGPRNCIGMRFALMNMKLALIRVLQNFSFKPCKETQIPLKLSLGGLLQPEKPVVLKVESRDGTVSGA
# Summary of the method: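 Substances were tested against enzyme with a pro-luciferin substrate; minus-enzyme wells served as background. After NADPH-initiated oxidation (30-45 min, RT), light was generated with P450-Glo reagent.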
# [14] = AP1 Signaling Pathway (AID 357; active = well fitted curve in either direction with a large enough effect, not every such curve was filed as active; inconclusive = small, poorly fitted or top-dose-only effect, or another doubt;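 note: ME-180 reporter cells stimulated with EGF at its EC50 level; top concentration of the series differs between compounds; % is set by controls: 0 for no effect and ±100 for the full control effect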); conditions: ME-180 (cervical carcinoma) AP-1-bla reporter, EGF-induced, beta-lactamase ratio, 5 h; at 17.2 µM (top of the series)
# Summary of the method: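 Beta-lactamase reporter under AP-1 response element, ME-180 background. Stimulus: EC50 EGF. Compound exposure 5 h, 37 °C. Detection: CCF4, 2.5 h RT, 460/530 nm. Values: AC50 from titration.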
# [15] = molecular target: Cytochrome P450 1A2 (Homo sapiens) (UniProt P05177); assay: p450-cyp1a2 (AID 410; calls by dose curve; note: potency is the fitted concentration of half-maximal effect)
# Sequence of UniProt P05177 (P05177 whole entry, looked up): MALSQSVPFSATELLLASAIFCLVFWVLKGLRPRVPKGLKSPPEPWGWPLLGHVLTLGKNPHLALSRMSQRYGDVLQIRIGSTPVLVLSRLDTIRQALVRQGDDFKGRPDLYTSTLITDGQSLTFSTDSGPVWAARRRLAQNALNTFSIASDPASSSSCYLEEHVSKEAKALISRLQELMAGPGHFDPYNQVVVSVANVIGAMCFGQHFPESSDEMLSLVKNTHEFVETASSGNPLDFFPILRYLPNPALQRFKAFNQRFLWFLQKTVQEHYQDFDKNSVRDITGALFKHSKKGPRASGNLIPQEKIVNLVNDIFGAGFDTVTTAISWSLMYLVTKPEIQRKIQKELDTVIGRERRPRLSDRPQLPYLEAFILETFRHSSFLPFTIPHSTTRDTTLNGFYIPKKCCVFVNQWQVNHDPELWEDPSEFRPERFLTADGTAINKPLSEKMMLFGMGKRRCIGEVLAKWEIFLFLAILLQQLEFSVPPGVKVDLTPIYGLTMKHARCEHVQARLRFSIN
# Summary of the method: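 20nM CYP1A2, 100uM Luciferin-ME (=Km), 100mM KPO4; cpd 10 min RT; +NADPH regen, 60 min RT; stop/detect 20 min; luminescence. Normalized to furafylline 57 uM = full inhibition.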
# [16] = Validation screen for small molecules that induce DNA re-replication in MCF 10A normal breast cells (AID 463097); note: potency is the fitted concentration of half-maximal effect; nearly all actives have a fitted effect of over 60% in size
# Summary of the method: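 DNA re-replication was detected as a rise in nuclei with elevated Hoechst fluorescence after a 48 hr compound exposure of MCF 10A cells at 37 C.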
# [17] = molecular target: Thioredoxin reductase 1, cytoplasmic (Rattus norvegicus) (UniProt O89049); assay: qHTS Assay for Inhibitors of Mammalian Selenoprotein Thioredoxin Reductase 1 (TrxR1) (AID 488773); conditions: Potency: inhibition;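 note: drop in NADPH fluorescence over an 8 min run after selenite addition; % is set by controls: 0 for no effect and ±100 for the full control effect; nearly all actives have a fitted effect of over 40% in size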
# Sequence of UniProt O89049 (O89049 whole entry, looked up): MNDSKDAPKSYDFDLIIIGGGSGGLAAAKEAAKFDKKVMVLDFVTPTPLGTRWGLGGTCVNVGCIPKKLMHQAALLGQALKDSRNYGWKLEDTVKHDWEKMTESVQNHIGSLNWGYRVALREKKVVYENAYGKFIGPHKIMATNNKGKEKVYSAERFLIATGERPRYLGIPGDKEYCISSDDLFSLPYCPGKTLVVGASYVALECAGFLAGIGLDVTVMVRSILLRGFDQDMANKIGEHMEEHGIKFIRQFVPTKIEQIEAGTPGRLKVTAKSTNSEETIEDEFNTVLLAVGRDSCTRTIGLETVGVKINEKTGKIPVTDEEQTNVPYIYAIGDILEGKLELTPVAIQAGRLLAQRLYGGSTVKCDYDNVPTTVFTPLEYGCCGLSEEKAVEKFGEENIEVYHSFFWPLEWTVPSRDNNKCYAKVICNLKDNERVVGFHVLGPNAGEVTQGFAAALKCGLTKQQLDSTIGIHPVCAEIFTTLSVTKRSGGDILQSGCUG
# Summary of the method: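 Inhibition is scored from the loss of NADPH fluorescence between first and last reads of an 8-min kinetic run. Selenite (400 uM) was the substrate, added after 15 min compound preincubation at room temperature.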
# [18] = molecular target: Transient receptor potential cation channel subfamily V member 1 (Homo sapiens) (UniProt Q8NER1); assay: HTS Assay for Compounds that Act as Enhancers of the Vanilloid Receptor 1 (AID 488979); note: 0% is about no effect
# Sequence of UniProt Q8NER1 (Q8NER1 whole entry, looked up): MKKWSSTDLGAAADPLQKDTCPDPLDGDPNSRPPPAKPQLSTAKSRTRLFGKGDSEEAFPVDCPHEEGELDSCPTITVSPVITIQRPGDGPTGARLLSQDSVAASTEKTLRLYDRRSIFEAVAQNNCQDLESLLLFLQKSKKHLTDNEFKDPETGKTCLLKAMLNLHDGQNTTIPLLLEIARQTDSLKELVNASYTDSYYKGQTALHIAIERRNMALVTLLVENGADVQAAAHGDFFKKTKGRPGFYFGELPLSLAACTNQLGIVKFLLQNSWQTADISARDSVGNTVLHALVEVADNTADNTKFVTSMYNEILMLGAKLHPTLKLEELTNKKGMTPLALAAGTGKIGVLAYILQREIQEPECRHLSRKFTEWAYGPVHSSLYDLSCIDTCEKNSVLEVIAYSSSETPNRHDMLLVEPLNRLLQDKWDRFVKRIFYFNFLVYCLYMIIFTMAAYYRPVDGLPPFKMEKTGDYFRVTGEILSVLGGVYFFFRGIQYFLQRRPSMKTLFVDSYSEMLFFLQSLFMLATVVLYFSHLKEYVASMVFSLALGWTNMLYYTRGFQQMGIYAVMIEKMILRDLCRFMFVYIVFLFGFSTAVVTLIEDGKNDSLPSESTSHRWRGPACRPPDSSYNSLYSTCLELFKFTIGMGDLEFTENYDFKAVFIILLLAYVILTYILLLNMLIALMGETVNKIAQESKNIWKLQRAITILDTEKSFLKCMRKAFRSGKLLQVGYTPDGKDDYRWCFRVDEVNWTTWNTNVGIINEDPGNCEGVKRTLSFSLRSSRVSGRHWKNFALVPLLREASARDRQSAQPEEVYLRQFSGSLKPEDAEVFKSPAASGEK
# Summary of the method: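 Calcium influx kinetics via Fluo-8 (480/520 nm) in TRPV1-expressing cells, 2000/well cultured overnight at 35.5C. Compound-alone read 3 min (agonist phase), followed by EC20 capsaicin challenge for 2 min (enhancer phase).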
# [19] = tested on: Zika virus NS2B-NS3 protease (unlinked); assay: Optimization of GU AMC qHTS for Zika virus inhibitors: Unlinked NS2B-NS3 protease assay (AID 1347151); note: potency is the fitted concentration of half-maximal effect; nearly all actives have a fitted effect of over 80% in size
# Summary of the method: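 Percent inhibition is derived from the 15-min change in AMC fluorescence, normalized against no-inhibitor and no-enzyme controls, then fitted to a 4-parameter Hill curve. Aprotinin was the intraplate control.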
# [20] = molecular target: Papain (Carica papaya) (UniProt P00784); assay: Primary qHTS assay for inhibitors of the protease papain (AID 1645873);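 note: papain turnover of Z-FR-AMC read as the AMC fluorescence gain over 10 min; potency is the fitted concentration of half-maximal effect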
# Sequence of UniProt P00784 (P00784 whole entry, looked up): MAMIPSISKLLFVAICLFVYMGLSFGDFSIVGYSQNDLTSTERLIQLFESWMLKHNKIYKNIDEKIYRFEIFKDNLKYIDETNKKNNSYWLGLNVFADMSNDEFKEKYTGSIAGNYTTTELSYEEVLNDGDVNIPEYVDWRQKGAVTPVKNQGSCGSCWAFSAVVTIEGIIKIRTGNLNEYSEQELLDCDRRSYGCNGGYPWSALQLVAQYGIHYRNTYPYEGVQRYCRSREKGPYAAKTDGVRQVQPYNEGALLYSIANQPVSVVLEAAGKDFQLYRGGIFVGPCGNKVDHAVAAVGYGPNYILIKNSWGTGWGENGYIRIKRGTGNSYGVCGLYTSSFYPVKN
# Tags give direction and shape of the fitted curve.
smiles,measurement,setting,value
O=c1[nH]c(=O)n([C@H]2C[C@H](O)[C@@H](CO)O2)cc1Br,Potency,[1],inactive
same,Potency,[2],"inconclusive [inhibitor, single point]"
same,Potency,[3],inactive
same,Potency,[4],inactive
same,Potency,[5],inactive
Clc1ccccc1CNCC1CCC(CNCc2ccccc2Cl)CC1 (stereo not given),Potency,[6],"inconclusive [rising, full curve]"
same,Potency,[7],"inconclusive [inhibitor, full curve, poor fit]"
NC(Cc1ccc(Cl)cc1)C(=O)O (stereo not given),Potency,[8],"inconclusive [inhibitor, full curve, poor fit]"
same,Potency,[9],"inconclusive [inhibitor, single point]"
same,Potency,[10],inactive
C=C1[C@H]2CC[C@H](C(=O)O)[C@@]23CC[C@H](C3)C1(C)C,Potency,[11],"inconclusive [inhibitor, full curve]"
same,"viability change, negative = cytotoxic",[12],inactive: 4.48%
same,Potency,[13],"inconclusive [inhibitor, partial curve]"
Cc1ccc(Cl)c(Nc2ccccc2C(=O)O)c1Cl,"activity change, negative = inhibition",[14],inconclusive: -32.8% [inhibitor]
same,Potency,[15],inconclusive [decreasing]
same,Potency,[16],active: 14.1 µM
same,Potency,[17],inactive
same,Potency,[18],inactive
same,Potency,[19],"inconclusive [inhibitor, single point]"
same,Potency,[20],"inconclusive [inhibitor, partial curve]"
